{"source": "the supplement of paper PMC11417369", "note": "The list shows a part of the results."}
{"test_system": "PfSIP2 AP2 domain 1 (GST-tagged)", "experiment": "gcPBM binding intensity (ln(normalized median fluorescence intensity)); higher = stronger DNA binding", "summary_of_the_method": "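In this array assay, P. falciparum DNA-binding domains with a GST tag, expressed in E. coli, were applied for 1 h to primer-extended double-stranded 36-bp intergenic genomic probes and negative controls on an Agilent 4 × 180k array. Bound protein was visualised with Alexa488 anti-GST antibody at 488 nm. Binding intensity is the highest Masliner-normalised natural-log median intensity across replicate spots of either probe orientation.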"}
{"sequence": "ATTATTCATTTATGTAGTACATTTTAATACATTTAA [XGTACX_site3599]", "gcPBM binding intensity (ln)": 7.23}
{"sequence": "AAGAAAAATTTAAACTGTACTTGTTTTCCAATGAAC [XGTACX_site4443]", "gcPBM binding intensity (ln)": 6.95}
{"sequence": "AAAAAAAAAAAAGTTACACACAAATAAAATATTTGG [CACACA_site694]", "gcPBM binding intensity (ln)": 7.13}
{"sequence": "ATAAAAAAAAATAAATGTACAAATTAACAAAATAAT [XGTACX_site5048]", "gcPBM binding intensity (ln)": 7.22}
{"sequence": "AATCACCAAATATGTACACACCTTAACATGTTTATA [CACACA_site5180]", "gcPBM binding intensity (ln)": 7.45}
{"sequence": "ATCTAAACAAATAATACACACAATAAAATAGGAAGA [CACACA_site4072]", "gcPBM binding intensity (ln)": 7.34}
{"sequence": "TGTGAATAAATAAGCACACATAAACCCATATATAAA [CACACA_site4103]", "gcPBM binding intensity (ln)": 7.06}
{"sequence": "TAATATTTACATATTACACACACGTATTATTAAATA [CACACA_site6340]", "gcPBM binding intensity (ln)": 6.92}
{"sequence": "TATTTTTTAAAAATGGGTACACATAAATAAATAAAT [XGTACX_site7643]", "gcPBM binding intensity (ln)": 7.56}
{"sequence": "AAAATATGTAGACACATACACACATATATATATATA [CACACA_site1221]", "gcPBM binding intensity (ln)": 9.8}
{"sequence": "TTTTTTTTTTCAAATGCATGCAAAAAAAAAAAAATA [TGCATGCA_site945]", "gcPBM binding intensity (ln)": 6.97}
{"sequence": "TATATGTATGTTTGTTTGTTTGTATTTTTTAAGGTA [XGTACX_negctrl_site619]", "gcPBM binding intensity (ln)": 6.93}
{"sequence": "TTTTCTTTTTCCAAAAGTACGTAATTTAAACATTTT [XGTACX_site2066]", "gcPBM binding intensity (ln)": 6.76}
{"sequence": "AAATTAGAAATACCTACACACTTATCAAAATAAATT [CACACA_site7132]", "gcPBM binding intensity (ln)": 6.81}
{"sequence": "ATAATTATGAAGCATACATGCATGTCCTGGCTTAAA [TGCATGCA_site491]", "gcPBM binding intensity (ln)": 6.9}
{"sequence": "TTATAATATGGATACACACACATATATAAATATATA [CACACA_site5314]", "gcPBM binding intensity (ln)": 6.98}
{"sequence": "AAAAAATAAATAAATACACACAAATCTATATTTATA [CACACA_site7243]", "gcPBM binding intensity (ln)": 6.76}
{"sequence": "ATCTAAATTTTTCCATGTACATATACTTTTATGCAT [XGTACX_site2683]", "gcPBM binding intensity (ln)": 7.46}
{"sequence": "GCAAGGAAATAATTGATAATATATATATATATATAT [GTGCAC_negctrl_site400]", "gcPBM binding intensity (ln)": 9.31}
{"sequence": "GAGTAAATAAATAAATGTACATATATATATATTATC [XGTACX_site8466]", "gcPBM binding intensity (ln)": 7.27}
{"sequence": "ATACATAAATATTGATGTACTCATTTAATATATTAT [XGTACX_site3992]", "gcPBM binding intensity (ln)": 6.87}
{"sequence": "AATATATATATATATATATATTTTTGTTAGAATATG [XGTACX_negctrl_site58]", "gcPBM binding intensity (ln)": 7.88}
{"sequence": "TATAATAAATATTAACGTACTCATATATATATATAT [XGTACX_site3871]", "gcPBM binding intensity (ln)": 9.04}
{"sequence": "CTAAAATACGGACACACACACACATATATATATATA [CACACA_site6138]", "gcPBM binding intensity (ln)": 9.61}
{"sequence": "ATTGTATATAAATGAGTGCATACTATGTTGTTCTTA [GTGCAC_site9678]", "gcPBM binding intensity (ln)": 8.72}
{"sequence": "ATTATCTCCGCCATGTGGACACATATAAGACATTTT [XGTACX_site2889]", "gcPBM binding intensity (ln)": 7.28}
{"sequence": "AAAAAAAAAAAAAACACACACACAAAAAAAAATATA [CACACA_site1104]", "gcPBM binding intensity (ln)": 7.41}
{"sequence": "AGGCTACGAATAGAATGTACCCGAAATAAGGAATAT [XGTACX_site6012]", "gcPBM binding intensity (ln)": 7.03}
{"sequence": "TATGTAAATCTCTTAAGAATTCGCTATATCTCTTTT [CACACA_negctrl_site1180]", "gcPBM binding intensity (ln)": 6.55}
{"sequence": "ATATAAGCGTATACATGTACATATATATCTTTGTAA [XGTACX_site2742]", "gcPBM binding intensity (ln)": 7.07}
{"sequence": "AAAAAAAAATGTCATGGTACACAATTTTTTCTTTTT [XGTACX_site4505]", "gcPBM binding intensity (ln)": 6.48}
{"sequence": "TAAAGTAAAACAAGGTAAGGTTTTTCTTTTTCTTTT [CACACA_negctrl_site1271]", "gcPBM binding intensity (ln)": 6.32}
{"sequence": "AATAAATTATGAACGGTGCAGGAAAAATTGTAACAT", "gcPBM binding intensity (ln)": 9.26}
{"sequence": "TAGATTATTTTATTTAGTACATAAAAAAGTAAGACC [XGTACX_site7889]", "gcPBM binding intensity (ln)": 7.43}
{"sequence": "CAAAAAAACAAACACACACACACACCGATATATATA [CACACA_site9218]", "gcPBM binding intensity (ln)": 7.36}
{"sequence": "AAACATAAGGGACACACACACATATATATATATATA [CACACA_site5920]", "gcPBM binding intensity (ln)": 9.81}
{"sequence": "TGAAGTGCAAAATACTGTACGTAATGTGCTTGTTAC [XGTACX_site4512]", "gcPBM binding intensity (ln)": 8.73}
{"sequence": "CAATCTTTTACGAATACACACACATAAAGAAAAAAA [CACACA_site8367]", "gcPBM binding intensity (ln)": 7.12}
{"sequence": "TTAAATAAATAAAAATGTACATGCATATATAAATAT [XGTACX_site8908]", "gcPBM binding intensity (ln)": 7.12}
{"sequence": "AATTTTTTATATGTCACACATTTGTTATTATTATTA [CACACA_site4197]", "gcPBM binding intensity (ln)": 6.86}
{"sequence": "AAAAAGAATAAATAAATATAAATAAATAAATATATA [GTGCAC_negctrl_site336]", "gcPBM binding intensity (ln)": 6.68}
{"sequence": "ACATATAGAAGTATCTATAAACAGTGATAGCATTTT [CACACA_negctrl_site1122]", "gcPBM binding intensity (ln)": 6.81}
{"sequence": "AAAACACAAAAAAAATGTACACATATATATATATAT [XGTACX_site8509]", "gcPBM binding intensity (ln)": 8.78}
{"sequence": "TAACTATATTTTTACTGTACAAAAAAATTAAATAAT [XGTACX_site1765]", "gcPBM binding intensity (ln)": 7.13}
{"sequence": "ATATTAATTCTACATTGTACACATGAAAAAATATAA [XGTACX_site8759]", "gcPBM binding intensity (ln)": 7.22}
{"sequence": "CATTATGTCGTAAATACACACATACAGATACATACA [CACACA_site4880]", "gcPBM binding intensity (ln)": 7.15}
{"sequence": "AAATTAAATAAATTTACACACTAAAAATTACAGATA [CACACA_site4722]", "gcPBM binding intensity (ln)": 6.83}
{"sequence": "GTTATATATAATAATTGTACAAAATTAAATATAACT [XGTACX_site4189]", "gcPBM binding intensity (ln)": 6.99}
{"sequence": "TTTTTATTTGGTTGTGTACACATATATATATATATA [CACACA_site5844]", "gcPBM binding intensity (ln)": 9.3}
{"sequence": "AAAAAACACCCACATACACACAAAAATGTTATAAAT [CACACA_site81]", "gcPBM binding intensity (ln)": 6.87}
{"sequence": "CTAAGAAAAAATAAAGCACACAAATATTTTAAAAAC [CACACA_site9094]", "gcPBM binding intensity (ln)": 6.73}
{"sequence": "AAAAAAAAATATAACAGTACATAAACATATGAATAT [XGTACX_site7093]", "gcPBM binding intensity (ln)": 6.91}
{"sequence": "TTTTATAATTTCTTCTGTACATATATATGAAAATAT [XGTACX_site74]", "gcPBM binding intensity (ln)": 7.16}
{"sequence": "TCAACCAAAACATAAGCATGCAATATATTTTTATAC [TGCATGCA_site560]", "gcPBM binding intensity (ln)": 7.16}
{"sequence": "TTATATATTTTTATGTGTACTTATATATATATATAT [XGTACX_site6211]", "gcPBM binding intensity (ln)": 9.53}
{"sequence": "CACAAAGACACAAACACACACACACCCACATACATA [CACACA_site452]", "gcPBM binding intensity (ln)": 7.2}
